# In the supplement of paper PMC8728848:
# Some of the results follow.
# What was measured:
# Experiment in all cases: glycan array binding signal (z-score within array); higher = stronger binding
# Details in all cases: glycan notation: IUPAC condensed, linker removed
# [1] = target: GlcNAc(b1-3)Gal(b1-4)Glc
# Procedure, shortened: (§1)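 The binding signal is a Z-score computed within each array. Data were drawn from 3228 arrays in the Consortium for Functional Glycomics database, restricted to those with a known protein sequence. Scores were averaged over arrays of the same protein sequence at different concentrations or buffers, and over linkers, and negative values can be taken as non-binding.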
# [2] = target: GlcNAc(b1-3)Gal(b1-4)GlcNAc
# Procedure, shortened: as §1
# [3] = target: GlcNAc(b1-3)Gal(b1-4)GlcNAc(b1-2)Man(a1-3)[GlcNAc(b1-3)Gal(b1-4)GlcNAc(b1-2)Man(a1-6)]Man(b1-4)GlcNAc(b1-4)GlcNAc
# Procedure, shortened: as §1
# [4] = target: GlcNAc(b1-3)Gal(b1-4)GlcNAc(b1-2)Man(a1-3)[GlcNAc(b1-3)Gal(b1-4)GlcNAc(b1-2)Man(a1-6)]Man(b1-4)GlcNAc(b1-4)[Fuc(a1-6)]GlcNAc
# Procedure, shortened: as §1
# [5] = target: GlcNAc(b1-3)Gal(b1-4)GlcNAc(b1-2)[GlcNAc(b1-3)Gal(b1-4)GlcNAc(b1-6)]Man(a1-6)[GlcNAc(b1-3)Gal(b1-4)GlcNAc(b1-2)Man(a1-3)]Man(b1-4)GlcNAc(b1-4)GlcNAc
# Procedure, shortened: as §1
# [6] = target: GlcNAc(b1-3)Gal(b1-4)GlcNAc(b1-3)Gal(b1-4)GlcNAc
# Procedure, shortened: as §1
# [7] = target: GlcNAc(b1-3)Gal(b1-4)GlcNAc(b1-3)Gal(b1-4)GlcNAc(b1-2)Man(a1-3)[GlcNAc(b1-3)Gal(b1-4)GlcNAc(b1-3)Gal(b1-4)GlcNAc(b1-2)Man(a1-6)]Man(b1-4)GlcNAc(b1-4)GlcNAc
# Procedure, shortened: as §1
# [8] = target: GlcNAc(b1-3)Gal(b1-4)GlcNAc(b1-3)Gal(b1-4)GlcNAc(b1-2)Man(a1-3)[GlcNAc(b1-3)Gal(b1-4)GlcNAc(b1-3)Gal(b1-4)GlcNAc(b1-2)Man(a1-6)]Man(b1-4)GlcNAc(b1-4)[Fuc(a1-6)]GlcNAc
# Procedure, shortened: as §1
# [9] = target: GlcNAc(b1-3)Gal(b1-4)GlcNAc(b1-3)Gal(b1-4)GlcNAc(b1-2)[GlcNAc(b1-3)Gal(b1-4)GlcNAc(b1-3)Gal(b1-4)GlcNAc(b1-6)]Man(a1-6)[GlcNAc(b1-3)Gal(b1-4)GlcNAc(b1-3)Gal(b1-4)GlcNAc(b1-2)Man(a1-3)]Man(b1-4)GlcNAc(b1-4)[Fuc(a1-6)]GlcNAc
# Procedure, shortened: as §1
# [10] = target: GlcNAc(b1-3)Gal(b1-4)GlcNAc(b1-3)Gal(b1-4)GlcNAc(b1-3)Gal(b1-4)GlcNAc(b1-2)Man(a1-3)[GlcNAc(b1-3)Gal(b1-4)GlcNAc(b1-3)Gal(b1-4)GlcNAc(b1-3)Gal(b1-4)GlcNAc(b1-2)Man(a1-6)]Man(b1-4)GlcNAc(b1-4)GlcNAc
# Procedure, shortened: as §1
# [11] = target: GlcNAc(b1-3)Gal(b1-4)GlcNAc(b1-3)Gal(b1-4)GlcNAc(b1-3)Gal(b1-4)GlcNAc(b1-2)Man(a1-3)[GlcNAc(b1-3)Gal(b1-4)GlcNAc(b1-3)Gal(b1-4)GlcNAc(b1-3)Gal(b1-4)GlcNAc(b1-2)Man(a1-6)]Man(b1-4)GlcNAc(b1-4)[Fuc(a1-6)]GlcNAc
# Procedure, shortened: as §1
# [12] = target: GlcNAc(b1-3)Gal(b1-4)GlcNAc(b1-3)Gal(b1-4)GlcNAc(b1-3)Gal(b1-4)GlcNAc(b1-2)[GlcNAc(b1-3)Gal(b1-4)GlcNAc(b1-3)Gal(b1-4)GlcNAc(b1-3)Gal(b1-4)GlcNAc(b1-6)]Man(a1-6)[GlcNAc(b1-3)Gal(b1-4)GlcNAc(b1-3)Gal(b1-4)GlcNAc(b1-3)Gal(b1-4)GlcNAc(b1-2)Man(a1-3)]Man(b1-4)GlcNAc(b1-4)[Fuc(a1-6)]GlcNAc
# Procedure, shortened: as §1
# [13] = target: GlcNAc(b1-3)Gal(b1-4)GlcNAc(b1-3)Gal(b1-4)GlcNAc(b1-3)Gal(b1-4)GlcNAc(b1-3)Gal(b1-4)GlcNAc(b1-2)Man(a1-3)[GlcNAc(b1-3)Gal(b1-4)GlcNAc(b1-3)Gal(b1-4)GlcNAc(b1-3)Gal(b1-4)GlcNAc(b1-3)Gal(b1-4)GlcNAc(b1-2)Man(a1-6)]Man(b1-4)GlcNAc(b1-4)GlcNAc
# Procedure, shortened: as §1
# [14] = target: GlcNAc(b1-3)Gal(b1-4)GlcNAc(b1-3)Gal(b1-4)GlcNAc(b1-3)Gal(b1-4)GlcNAc(b1-3)Gal(b1-4)GlcNAc(b1-2)Man(a1-3)[GlcNAc(b1-3)Gal(b1-4)GlcNAc(b1-3)Gal(b1-4)GlcNAc(b1-3)Gal(b1-4)GlcNAc(b1-3)Gal(b1-4)GlcNAc(b1-2)Man(a1-6)]Man(b1-4)GlcNAc(b1-4)[Fuc(a1-6)]GlcNAc
# Procedure, shortened: as §1
# [15] = target: GlcNAc(b1-3)Gal(b1-4)GlcNAc(b1-3)Gal(b1-4)GlcNAc(b1-3)Gal(b1-4)GlcNAc(b1-3)Gal(b1-4)GlcNAc(b1-2)[GlcNAc(b1-3)Gal(b1-4)GlcNAc(b1-3)Gal(b1-4)GlcNAc(b1-3)Gal(b1-4)GlcNAc(b1-3)Gal(b1-4)GlcNAc(b1-6)]Man(a1-6)[GlcNAc(b1-3)Gal(b1-4)GlcNAc(b1-3)Gal(b1-4)GlcNAc(b1-3)Gal(b1-4)GlcNAc(b1-3)Gal(b1-4)GlcNAc(b1-2)Man(a1-3)]Man(b1-4)GlcNAc(b1-4)[Fuc(a1-6)]GlcNAc
# Procedure, shortened: as §1
# [16] = target: GlcNAc(b1-3)Gal(b1-4)GlcNAc(b1-3)Gal(b1-4)GlcNAc(b1-3)GalNAc
# Procedure, shortened: as §1
# [17] = target: GlcNAc(b1-3)Gal(b1-4)GlcNAc(b1-3)GalNAc
# Procedure, shortened: as §1
# [18] = target: GlcNAc(b1-3)Gal(b1-4)GlcNAc(b1-3)[GlcNAc(b1-3)Gal(b1-4)GlcNAc(b1-3)]GalNAc
# Procedure, shortened: as §1
# [19] = target: GlcNAc(b1-3)Gal(b1-4)GlcNAc(b1-6)[Gal(b1-3)]GalNAc
# Procedure, shortened: as §1
# [20] = target: GlcNAc(b1-3)Gal(b1-4)GlcNAc(b1-6)[GlcNAc(b1-3)Gal(b1-3)]GalNAc
# Procedure, shortened: as §1
# [21] = target: GlcNAc(b1-3)Gal(b1-4)GlcNAc(b1-6)[GlcNAc(b1-3)]Gal(b1-4)GlcNAc
# Procedure, shortened: as §1
# [22] = target: GlcNAc(b1-3)GalNAc
# Procedure, shortened: as §1
# [23] = target: GlcNAc(b1-3)Man
# Procedure, shortened: as §1
# [24] = target: GlcNAc(b1-3)[GlcNAc(b1-4)][GlcNAc(b1-6)]GlcNAc
# Procedure, shortened: as §1
# [25] = target: GlcNAc(b1-3)[GlcNAc(b1-6)]Gal(b1-4)GlcNAc
# Procedure, shortened: as §1
# [26] = target: GlcNAc(b1-3)[GlcNAc(b1-6)]GalNAc
# Procedure, shortened: as §1
# [27] = target: GlcNAc(b1-4)Gal(b1-4)GlcNAc
# Procedure, shortened: as §1
# [28] = target: GlcNAc(b1-4)GlcNAc
# Procedure, shortened: as §1
# [29] = target: GlcNAc(b1-4)GlcNAc(b1-4)GlcNAc
# Procedure, shortened: as §1
# [30] = target: GlcNAc(b1-4)GlcNAc(b1-4)GlcNAc(b1-4)GlcNAc(b1-4)GlcNAc
# Procedure, shortened: as §1
# [31] = target: GlcNAc(b1-4)GlcNAc(b1-4)GlcNAc(b1-4)GlcNAc(b1-4)GlcNAc(b1-4)GlcNAc
# Procedure, shortened: as §1
# [32] = target: GlcNAc(b1-4)[GlcNAc(b1-6)]GalNAc
# Procedure, shortened: as §1
# [33] = target: GlcNAc(b1-6)Gal(b1-4)GlcNAc
# Procedure, shortened: as §1
# [34] = target: GlcNAc(b1-6)GalNAc
# Procedure, shortened: as §1
# [35] = target: GlcNAc6S(b1-3)Gal(b1-4)GlcNAc
# Procedure, shortened: as §1
# [36] = target: Kdn(a2-3)Gal(b1-3)GalNAc
# Procedure, shortened: as §1
# [37] = target: Kdn(a2-3)Gal(b1-3)GlcNAc
# Procedure, shortened: as §1
# [38] = target: Kdn(a2-3)Gal(b1-4)Glc
# Procedure, shortened: as §1
# [39] = target: Kdn(a2-3)Gal(b1-4)GlcNAc
# Procedure, shortened: as §1
# [40] = target: Kdn(a2-3)Gal(b1-4)[Fuc(a1-3)]GlcNAc
# Procedure, shortened: as §1
# [41] = target: Kdn(a2-6)Gal(b1-4)GlcNAc
# Procedure, shortened: as §1
# [42] = target: Man(a1-2)Man(a1-2)Man(a1-3)Man
# Procedure, shortened: as §1
# [43] = target: Man(a1-2)Man(a1-2)Man(a1-6)[Man(a1-3)]Man
# Procedure, shortened: as §1
# [44] = target: Man(a1-2)Man(a1-3)Man
# Procedure, shortened: as §1
# [45] = target: Man(a1-2)Man(a1-3)[Man(a1-2)Man(a1-6)]Man
# Procedure, shortened: as §1
binder,measurement,setting,value
Arath Fbox LD (Arabidopsis thaliana) (protein) EFSVWLEKASGKRCLMLSAMNLSIIWGDNPQYWQWIPIPESRFEKVAKLRDVCWFEIRGRTNTRVLSPRTRYSAYIVFKGVDKCYGFQNVAIEAAVGVVGQEPSRRLICFSEAIRRGRRNVVKPKQREDGWMEIELGEFFNDGGIMDNDEIEMSALETKQLNRKCGLIIQGIEIRPAKILAAASFLEQKLISEEDLNSAVDHHHHHH,glycan array binding signal (z-score),[1],0.513
same,glycan array binding signal (z-score),[2],-0.342
same,glycan array binding signal (z-score),[3],-0.512
same,glycan array binding signal (z-score),[4],-0.468
same,glycan array binding signal (z-score),[5],0.893
same,glycan array binding signal (z-score),[6],-0.515
same,glycan array binding signal (z-score),[7],-0.123
same,glycan array binding signal (z-score),[8],-0.373
same,glycan array binding signal (z-score),[9],0.126
same,glycan array binding signal (z-score),[10],1.11
same,glycan array binding signal (z-score),[11],-0.485
same,glycan array binding signal (z-score),[12],0.244
same,glycan array binding signal (z-score),[13],-0.541
same,glycan array binding signal (z-score),[14],-0.57
same,glycan array binding signal (z-score),[15],-0.033
same,glycan array binding signal (z-score),[16],-0.049
same,glycan array binding signal (z-score),[17],-0.513
same,glycan array binding signal (z-score),[18],-0.565
same,glycan array binding signal (z-score),[19],-0.61
same,glycan array binding signal (z-score),[20],-0.52
same,glycan array binding signal (z-score),[21],-0.444
same,glycan array binding signal (z-score),[22],-0.017
same,glycan array binding signal (z-score),[23],-0.311
same,glycan array binding signal (z-score),[24],-0.289
same,glycan array binding signal (z-score),[25],0.839
same,glycan array binding signal (z-score),[26],0.261
same,glycan array binding signal (z-score),[27],-0.245
same,glycan array binding signal (z-score),[28],-0.462
same,glycan array binding signal (z-score),[29],-0.45
same,glycan array binding signal (z-score),[30],-0.043
same,glycan array binding signal (z-score),[31],-0.495
same,glycan array binding signal (z-score),[32],1.01
same,glycan array binding signal (z-score),[33],-0.581
same,glycan array binding signal (z-score),[34],-0.539
same,glycan array binding signal (z-score),[35],-0.397
same,glycan array binding signal (z-score),[36],-0.502
same,glycan array binding signal (z-score),[37],-0.08
same,glycan array binding signal (z-score),[38],-0.606
same,glycan array binding signal (z-score),[39],0.734
same,glycan array binding signal (z-score),[40],-0.387
same,glycan array binding signal (z-score),[41],-0.622
same,glycan array binding signal (z-score),[42],-0.56
same,glycan array binding signal (z-score),[43],-0.487
same,glycan array binding signal (z-score),[44],-0.425
same,glycan array binding signal (z-score),[45],-0.473
